# Test results reported in PubChem BioAssay AID1345082 (National Center for Advancing Translational Sciences (NCATS), 2018).
# About 4,000 (4.3%) of roughly 94,000 compounds were called active. This list was built around the results that the source calls inconclusive (neither active nor inactive); the mix of calls is not that of the screen. The call rests on the fitted dose curve; in most records, active means well fitted inhibition curve with a large enough effect; inconclusive means small, poorly fitted or top-dose-only effect; inactive means no such curve, though single readings can be large or run the other way. Potencies beside an inconclusive call are fits to weak or partial responses and may not hold up.
# Assay: Cytotoxic Profiling in NIH 3T3 Cell Line of Diverse Libraries Using Quantitative High-Throughput Screening; further: nearly all actives have a fitted effect of over 55% in size
# Details: NIH 3T3 viability, CellTiter-Glo ATP luminescence, 48-72 h; activity change, negative = cytotoxicity: at 96.7 µM (top of the series); series mostly up to 96.7 µM
# Outline: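 Cells were seeded at 400 per well, treated with pin-transferred compound, and kept 48 or 72 hr at 37 °C before CellTiter-Glo addition and luminescence imaging of cellular ATP.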
# On the % scale 0 is the no-effect control and ±100 the full control effect; potency means the concentration at half of the fitted maximal effect; tags describe the fitted curve by direction and shape.
SMILES,"activity change, negative = cytotoxicity",Potency,outcome
CC(C)c1noc(-c2ccn3c(CNC(=O)c4ccc(N(C)C)cc4)nnc3c2)n1,inactive: -12.1%,,
OC1(c2csc(CN3CCOCC3)n2)CCN(Cc2ccc(C(F)(F)F)cc2)CC1,,"inconclusive: 31.6 µM [inhibitor, partial curve, poor fit]",
COc1ccccc1C(=O)N1CCC2(CC1)NC(=O)N(c1cccc(F)c1)N2,,"inconclusive: 44.7 µM [inhibitor, partial curve]",
O=C1N(c2ccccc2)C[C@H]2CN(Cc3ccccc3)CCN12,inactive: -18.3% [at 138 µM],,
CC(C)C[C@@H](NC(=O)C1=C[C@@H](NC(=O)c2ccc(F)c(Cl)c2)[C@@H](O)[C@H](O)C1)C(N)=O,inactive: 0.59%,,
Cc1cc(C)cc(C(=O)N2CCN(c3cc(-c4ccccc4)[nH]n3)CC2)c1,,"inconclusive: 39.8 µM [inhibitor, partial curve]",
O=C(Nc1nn(-c2cccc(F)c2)c2cccc(N3CCOCC3)c12)C1CCC1,,"inconclusive: 79.4 µM [inhibitor, partial curve, poor fit]",
Cn1ncc2c(C(=O)N3CCOCC3)cc(-c3ccc(Cl)nc3)nc21,,"inconclusive: 50.1 µM [inhibitor, single point]",
COc1cccc(CCN(Cc2cccc(C)c2)C(=O)[C@H]2CCC[C@H](O)C2)c1,,"inconclusive: 56.2 µM [inhibitor, partial curve, poor fit]",
CC(C)NC(=O)c1cn2cc(-c3ccccc3)sc2n1,,"inconclusive: 89.1 µM [inhibitor, partial curve]",
COc1ccc(Nc2ccnc(N3CCCC(C(=O)NCc4ccc(C(F)(F)F)cc4)C3)n2)cc1 (stereo unspecified),,"inconclusive: 15.8 µM [inhibitor, full curve, poor fit]",
COc1ccc(-c2[nH]nc3ncc(-c4ccccc4F)nc23)c(C)c1,,active: 50.1 µM,
O=C(Nc1ccc([C@H]2OCC(=O)N(Cc3ccc(F)cc3)[C@@H]2CO)cc1)C1CCC1,,"inconclusive: 50.1 µM [inhibitor, partial curve, poor fit]",
COc1ccccc1CC(=O)N1CCC[C@H]1c1nc(-c2ccc(F)cc2)no1,,"inconclusive: 50.1 µM [inhibitor, single point]",
O=C(NCc1ccc2c(c1)OCO2)C1CCN(Cc2ccccc2-c2ccccc2F)CC1,,"inconclusive: 35.5 µM [inhibitor, partial curve, poor fit]",
O=C(NCc1ccc(F)c(F)c1)c1cn2cc(-c3ccccc3)sc2n1,,"inconclusive: 70.8 µM [inhibitor, single point]",
Cc1cccc(NC(=O)N2CCc3nnc(C4CC4)n3CC2)c1,,,inactive
CN1CC(=O)N(CC(=O)N2CCC3(CC2)[C@H](O)C[C@@H]3OCCO)C1=O,,,inactive
CNC(=O)CCn1ncc2cc(OCc3ccccc3-c3cc(F)ccc3C)ccc21,,active: 79.4 µM,
Cc1nc2c(c(-c3ccc(O)cc3)n1)CN(Cc1ccccc1)CCC2,,"inconclusive: 44.7 µM [inhibitor, partial curve, poor fit]",
CC1=C[C@@H](CNCc2ccc(Cl)cc2)[C@H](C(C)C)C[C@H]1Cc1nnc(-c2cncn2C)o1,,active: 39.8 µM,
COCC(=O)NC1CCC12CCN(C(=O)Nc1ccc3c(c1)OCCO3)CC2 (stereo unspecified),,"inconclusive: 44.7 µM [inhibitor, partial curve, poor fit]",

SMILES,"activity change, negative = cytotoxicity",Potency,outcome
Cc1nn(-c2ccccc2)c2c1C(C1CC1)N(CC1CN(C(=O)Nc3ccc(Cl)cc3)C1)C2=O (stereo unspecified),,"inconclusive: 11.2 µM [inhibitor, full curve, poor fit]",
CC(=O)N1CCN(C(=O)c2nc3cccnc3n(Cc3ccccc3)c2=O)CC1,inactive: -16.3%,,
O=[S+]([O-])(NC1CCN(Cc2cccc(-c3ccc(F)c(F)c3)c2)CC1)c1cccs1,,"inconclusive: 44.7 µM [inhibitor, partial curve, poor fit]",
CN(CC1CC1)C1CCOc2ccccc21 (stereo unspecified),inactive: -20.8% [at 174 µM],,
CCN(CC)C(=O)C[C@@H]1c2nc(NC(=O)c3ccco3)sc2C[C@@H]2[C@](C)(CO)[C@H](O)CC[C@]21C,inactive: -14.1%,,
CC1(C)[C@H]2CC[C@@H](CNC(=O)c3ccccc3Cl)[C@@H]1C2,,"inconclusive: 89.1 µM [inhibitor, partial curve]",
CN1CCC(N2CC[C@H](c3nnc(-c4ccc(Cl)cc4)o3)C2)CC1,,"inconclusive: 89.1 µM [inhibitor, partial curve]",
O=C(c1n[nH]c(=O)c2ccccc12)N1CCCC1c1nc(CCOCC2CC2)no1 (stereo unspecified),,,inactive
CCCC(=O)N1Cc2ccccc2CC2(CCN(Cc3cccnc3)C2)C1 (stereo unspecified),inactive: -20.7%,,
O=C(NC1CCCCC1)N[C@H]1CCN2C(=O)c3cc(-c4cccs4)ccc3NC(=O)[C@H]12,,"inconclusive: 70.8 µM [inhibitor, partial curve, poor fit]",
Cc1cn2nc(-c3nc(C4CCCN(C(=O)c5ccccc5F)C4)no3)cc2c(=O)[nH]1 (stereo unspecified),inactive: -23.2%,,
COc1ccc(F)cc1-c1ccc(CN2CCC(NC(=O)c3ccc(C)cc3)C2)cc1 (stereo unspecified),,active: 39.8 µM,
O=C1NCc2ccccc2CC12CCCN(Cc1ccc(Cl)cc1)C2 (stereo unspecified),,"inconclusive: 50.1 µM [inhibitor, partial curve, poor fit]",
O=C(NCC1CCOCC1)Nc1ccc(C(F)(F)F)cc1,inactive: -8.12%,,
CCc1noc(-c2cn(C3CCCN(C(=O)COc4ccccc4)C3)nn2)n1 (stereo unspecified),inactive: -17.2%,,
CN(C)C(=O)N1CCC2(CC1)CC(=O)N(c1ccccc1)c1ccccc1O2,inactive: -7.77%,,
COCC1CN(Cc2ccc(Br)s2)CC12CCNCC2 (stereo unspecified),,"inconclusive: 50.1 µM [inhibitor, partial curve, poor fit]",
Cc1noc(C2CC3(CCN(C(=O)CCCc4c[nH]c5ccccc45)CC3)CN2C)n1 (stereo unspecified),inactive: -31.9%,,
Cc1cccc(-c2nc3ccc(C(=O)NC4CC4)cc3o2)n1,,"inconclusive: 44.7 µM [inhibitor, partial curve, poor fit]",
CN(Cc1ccc(F)cc1)C(=O)Nc1ccccc1,,"inconclusive: 89.1 µM [inhibitor, partial curve, poor fit]",
COc1ccc(C(=O)N2CCC(c3nn(-c4ccc(Cl)cc4)c(=O)[nH]3)CC2)cc1,,"inconclusive: 50.1 µM [inhibitor, partial curve, poor fit]",
Cc1nn(-c2ccccc2)c2c1C(C)N(C1CCN([S+](=O)([O-])c3cccs3)CC1)C2=O (stereo unspecified),inactive: -20.1%,,

SMILES,"activity change, negative = cytotoxicity",Potency,outcome
COc1ccccc1CN1C(=O)COC[C@@H]1[C@H](O)c1ccc(NC(=O)CCc2ccccc2)cc1,,"inconclusive: 50.1 µM [inhibitor, partial curve, poor fit]",
O=C(CCc1ccccc1)N1CCCCCC1CN1CCOCC1 (stereo unspecified),inactive: -24.6%,,
COc1cccc(-c2cc(C(=O)NCc3cccc(Cl)c3)c3cnn(C)c3n2)c1,,active: 22.4 µM,
NC(=O)c1cc2c(nc1CCC1COc3ccccc3O1)CCC2 (stereo unspecified),,"inconclusive: 35.5 µM [inhibitor, full curve, poor fit]",
Cn1nc(C2CCN(C(=O)c3ccc[nH]3)CC2)n(Cc2ccccc2)c1=O,,"inconclusive: 56.2 µM [inhibitor, partial curve, poor fit]",
CN1CCCN(C(=O)Cc2ccc(OC(F)(F)F)cc2)c2ccccc21,,active: 39.8 µM,
C=CCNC(=O)CN1CN(c2ccccc2)C2(CCN(C(=O)NCc3ccccc3)CC2)C1=O,inactive: -29.7%,,
COc1ccc(-c2cc(N3CCCC(NC(=O)c4cc(F)ccc4F)C3)n[nH]2)cc1 (stereo unspecified),,"inconclusive: 14.1 µM [inhibitor, full curve, poor fit]",
Cc1ccc2c(C(=O)N3CCCCCC3)cc(NC(=O)C3CCC3)cc2n1,,"inconclusive: 70.8 µM [inhibitor, single point]",
Fc1ccc2c(c1)nc1n2[C@@H](CNC2CCC2)COC1,,active: 70.8 µM,
O=[S+]([O-])(c1cccs1)N1CCC2(CC(c3cccnc3)=NO2)C1 (stereo unspecified),inactive: 0.895%,,
O=C(COc1ccccc1)Nc1cccn2nc(C3CCC3)nc12,,"inconclusive: 35.5 µM [inhibitor, partial curve]",
Cc1ccccc1C(=O)N1CCc2nc(-c3ccccc3)nc(-c3ccc(Cl)cc3)c2C1,,"inconclusive: 35.5 µM [inhibitor, partial curve]",
C[S+](=O)([O-])c1ccc(CC(=O)N2CC(CNC(=O)C3CC3)C3(C2)CN(c2ccccc2)C3)cc1 (stereo unspecified),,"inconclusive: 79.4 µM [inhibitor, single point]",
O=C(NCCc1ccc(F)cc1)c1nc2cccnc2n(Cc2ccccc2)c1=O,,"inconclusive: 50.1 µM [inhibitor, partial curve, poor fit]",
CC(C)NC(=O)c1ccccc1OCC1CCCN(C(=O)C2CCOCC2)C1 (stereo unspecified),,"inconclusive: 70.8 µM [inhibitor, partial curve, poor fit]",
CNC(=O)[C@@H]1C[C@@H](O)CN1C1CCN(C(=O)CCc2ccccc2)CC1,inactive: -2.59%,,
COc1ccc(-c2[nH]nc3ncc(C(=O)NCC4CCOCC4)nc23)c(C)c1,,"inconclusive: 17.8 µM [inhibitor, full curve, poor fit]",
O=[S+]([O-])(c1cccs1)N1CCN(Cc2ccccc2-c2ccccc2F)CC1,,"inconclusive: 44.7 µM [inhibitor, partial curve, poor fit]",
CC(C)c1noc(-c2cccn3c(CNC(=O)C4CCCC4)nnc23)n1,inactive: -3.88%,,
CC1=C[C@@H](CN2C(=O)C(C)=C(C)C2=O)[C@H](C(C)C)C[C@H]1Cc1nc2ccc(C)cc2[nH]1,,active: 28.2 µM,
CC(C)c1ncc(-c2ccccc2)[nH]1,inactive: -2.68% [at 174 µM],,
